In paper PMC4336329 (PLoS ONE, 2015):
Screen size: about 310,000 compounds; about 2,200 (0.71%) showed an effect of 50% or more. The effect is printed as a negative number. The list shows a part of the results.

target: human ether-à-go-go-related gene (hERG) potassium channel (human, UniProt Q12809); assay: primary screen, population patch clamp on CHO cells stably expressing hERG
Sequence (Q12809 whole entry, looked up): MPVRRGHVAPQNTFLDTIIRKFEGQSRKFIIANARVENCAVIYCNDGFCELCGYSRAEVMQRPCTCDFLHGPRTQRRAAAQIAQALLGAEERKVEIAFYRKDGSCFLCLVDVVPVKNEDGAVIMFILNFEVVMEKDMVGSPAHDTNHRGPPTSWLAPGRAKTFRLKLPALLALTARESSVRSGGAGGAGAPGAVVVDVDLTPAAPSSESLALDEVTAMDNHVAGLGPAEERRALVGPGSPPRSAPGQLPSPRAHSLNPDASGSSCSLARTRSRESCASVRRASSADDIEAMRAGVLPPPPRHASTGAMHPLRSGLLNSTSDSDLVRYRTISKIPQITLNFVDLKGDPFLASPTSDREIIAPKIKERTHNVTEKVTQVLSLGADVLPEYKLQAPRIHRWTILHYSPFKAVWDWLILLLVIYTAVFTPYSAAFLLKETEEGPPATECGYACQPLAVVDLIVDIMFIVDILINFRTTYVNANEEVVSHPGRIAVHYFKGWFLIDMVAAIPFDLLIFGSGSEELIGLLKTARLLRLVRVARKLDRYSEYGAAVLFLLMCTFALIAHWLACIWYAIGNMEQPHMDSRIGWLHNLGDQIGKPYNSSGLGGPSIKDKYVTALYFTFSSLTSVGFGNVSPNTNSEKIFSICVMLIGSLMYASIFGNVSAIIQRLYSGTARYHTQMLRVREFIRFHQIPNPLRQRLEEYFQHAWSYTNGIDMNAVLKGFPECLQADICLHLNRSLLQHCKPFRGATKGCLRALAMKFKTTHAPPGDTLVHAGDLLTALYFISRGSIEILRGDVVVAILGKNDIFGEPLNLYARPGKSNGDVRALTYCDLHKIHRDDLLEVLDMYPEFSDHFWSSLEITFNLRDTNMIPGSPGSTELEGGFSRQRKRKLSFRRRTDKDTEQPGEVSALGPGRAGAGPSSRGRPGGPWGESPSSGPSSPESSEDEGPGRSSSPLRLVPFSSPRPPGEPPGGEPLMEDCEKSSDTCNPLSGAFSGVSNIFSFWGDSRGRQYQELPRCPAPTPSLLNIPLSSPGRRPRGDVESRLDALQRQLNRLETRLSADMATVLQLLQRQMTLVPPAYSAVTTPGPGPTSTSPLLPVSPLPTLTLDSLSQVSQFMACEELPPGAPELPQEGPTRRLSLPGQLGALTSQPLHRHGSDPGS

Structure (SMILES)	hERG current change (%, negative = inhibition) at 1uM
Cc1cccc2cc(-c3nc4c(C)cccn4c3NCc3ccco3)c(=O)[nH]c12	2.58%
Cc1cccc(N2CCN(C(=O)c3ccoc3C)CC2)c1C	-0.478%
Cc1c(Cl)cccc1NC(=S)N1CCC(N(C)CC2CCCO2)CC1 (stereo not drawn)	11.6%
Cc1ccc(S(=O)(=O)N2CCOCC2)cc1C(=O)OCCOc1cccc(Cl)c1	11.6%
COc1ccc(CNC(=O)CN2C(=O)c3ccc([N+](=O)[O-])cc3C2=O)cc1	12%
Cc1ccc(CC(=O)Nc2nncs2)cc1	17.2%
COCCNS(=O)(=O)c1cccn1-c1ncc(C(F)(F)F)cc1Cl	10.7%
O=C(Oc1cccc(C(=S)N2CCOCC2)c1)c1ccccc1	17.9%
Cc1ccc(OCC(=O)NC2CC(C)(C)NC(C)(C)C2)cc1C	12.4%
O=C(CCc1ccccc1)Nc1ccc2c(c1)C(=O)OC2	12.2%
CCOC(=O)c1c(NC(=O)CC2Nc3ccccc3NC2=O)sc(C)c1C (stereo not drawn)	15.2%
CC(=O)c1ccc2c(c1)C1C=CCC1C(c1ccncc1)N2 (stereo not drawn)	-4.24%
CC(C(=O)Nc1cccc([N+](=O)[O-])c1)n1nnc2ccccc21 (stereo not drawn)	-12.1%
COc1cccc(OC)c1C(=O)N1CCN(Cc2ccccc2C(F)(F)F)CC1.O=C(O)C(=O)O	8.04%
C[C@@H]1CCC(=O)N(C[C@@H](C)CSc2ccccc2)CC1	-7.31%
NC(=O)c1cc2cc([N+](=O)[O-])ccc2oc1=O	2.22%
Nc1cc(C(=O)c2ccccc2)ccc1[N+](=O)[O-]	14.9%
CCOC(=O)c1ccc(CNC(=O)Cn2nnc(-c3ccccc3F)n2)o1	-8.69%
O=C(Nc1ccc(F)cc1F)N1CCN(CCc2ccccc2)CC1	8.82%

Structure (SMILES)	hERG current change (%, negative = inhibition) at 1uM
CC(NC(=O)C(C)N1CCN(Cc2ccccc2)CC1)c1ccccc1 (stereo not drawn)	20%
COc1ccc(C(=O)NCc2nnc(SCC(=O)N3CCOCC3)o2)cc1OC	14.1%
O=C(NCc1cccs1)[C@@H]1CSC2c3ccccc3C(=O)N21 (stereo partly drawn)	7.24%
CN1CCN(c2nc(Nc3ccccc3)nc(N)c2[N+](=O)[O-])CC1	-10.2%
Cc1ccc(CSc2ncnc3c2cnn3Cc2ccccc2)cc1	-6.35%
Cc1ccc(S(=O)(=O)NCCc2ccncc2)cc1C	14%
COC(=O)c1ccc(S(=O)(=O)N2CCCCCC2)cc1	6%
CCCc1nc2sc(C(=O)OCC)c(N)c2c2c1COC(C)(C)C2	2.39%
O=C(O)COCC(=O)Nc1ccc2c(c1)CCC2	14.3%
CCOCCCNC1=C(Cl)C(=O)c2ccccc2C1=O	7.84%
COc1ccc(S(=O)(=O)NCC2CCCO2)cc1C(=O)O (stereo not drawn)	18.5%
O=C(c1ccccc1)N1N=C(c2ccco2)CC1c1cccs1 (stereo not drawn)	8.01%
Cc1cccc(C)c1NC(=O)C1CC2CCC1C2 (stereo not drawn)	6.99%
CN(C)C(=O)[C@H]1C[C@H]1[C@@H](O)[C@H](CO)NC(=O)[C@H](Cc1ccccc1)NC(=O)OC(C)(C)C	7.02%
O=C(NCc1cccc(Cl)c1)N1CCN(S(=O)(=O)c2ccccc2F)CC1	3.82%
CC(=O)Nc1ccc(S(=O)(=O)NCc2nnnn2-c2ccc(F)cc2)cc1	10.3%
Cc1ccc(C(=O)COC(=O)CCC(=O)NC2CCCCC2)cc1C	16%
Fc1ccccc1CNc1cc(Cl)cc(Cl)c1	11.7%
Cc1ccc(-n2c(=O)[nH]cc(C(=O)Nc3ccc4c(c3)OCCO4)c2=O)cc1C	8.08%

Structure (SMILES)	hERG current change (%, negative = inhibition) at 1uM
O=C(NC1CCCCC1)C12CC3CC(CC(Cl)(C3)C1)C2	16.6%
CC1(C(=O)N(CC(=O)NC2CCCC2)Cc2ccccc2)CC(=O)N=C2C=CC=CN21 (stereo not drawn)	11.6%
COc1ccc(NC(=O)N(CCO)Cc2cc3c(C)cc(C)cc3[nH]c2=O)cc1	4.72%
COC(=O)c1ccc(NC(=O)CN(c2ccc(C)cc2)S(=O)(=O)c2c(C)nn(C)c2C)cc1	13.4%
CCOC(=O)c1sc2ncnc(N3CCN(C(=O)OCC)CC3)c2c1C	-6%
CN(CC(=O)Nc1ccc(Cl)cc1)C(=O)c1ccc(COc2ccccc2)cc1	8.06%
COc1ccc(OC)c(C2(O)CSC(=Nc3cccnc3)N2Cc2ccco2)c1 (stereo not drawn)	3.79%
Cc1ccc2c(n1)CC(C)(C)CC2=O	8.51%
Cc1cccc(Cn2c(SCCN3CCCCC3)nc3c2c(=O)[nH]c(=O)n3C)c1	-80.7%
O=[N+]([O-])/C=C/c1cn(Cc2ccc(Cl)cc2)c2ccccc12	12.7%
CC(Oc1coc(CN2CCN(C(=O)c3ccco3)CC2)cc1=O)c1ccccc1 (stereo not drawn)	11.8%
CCOc1ccc(OCCOCCNCCOC)cc1	10.1%
O=C(OCc1ccc(Br)cc1)c1cccnc1	10.4%
CCSc1nnc([C@@H](N)Cc2ccccc2)o1.Cl	6.48%
C=CCOC(=O)C1=C[C@H](c2cn(C(C)=O)c3ccccc23)[C@@H](CCCO)[C@H](OCC)O1	-0.212%
CC(Sc1nc2cc(Cl)ccc2s1)C(=O)Nc1ccc2c(c1)OCO2 (stereo not drawn)	9.42%
CCOc1ccccc1C1CC(c2cccc(NS(C)(=O)=O)c2)=NN1C(=O)c1ccccc1 (stereo not drawn)	-14.9%
O=C(NNC(=O)c1ccccc1[N+](=O)[O-])Nc1ccccc1C(F)(F)F	15.4%
Cc1noc(C)c1C(=O)Nc1ccc(S(=O)(=O)N2CCCCC2)cc1	10.5%
